The list shows a part of the results. The energies were worked out here from pooled read counts, against the library average; single values are noisy.
target: T1, Pho4 (S. cerevisiae) (UniProt P07270); assay: relative binding free energy (BET-seq); higher = weaker binding; conditions: reference: library average
T1 sequence: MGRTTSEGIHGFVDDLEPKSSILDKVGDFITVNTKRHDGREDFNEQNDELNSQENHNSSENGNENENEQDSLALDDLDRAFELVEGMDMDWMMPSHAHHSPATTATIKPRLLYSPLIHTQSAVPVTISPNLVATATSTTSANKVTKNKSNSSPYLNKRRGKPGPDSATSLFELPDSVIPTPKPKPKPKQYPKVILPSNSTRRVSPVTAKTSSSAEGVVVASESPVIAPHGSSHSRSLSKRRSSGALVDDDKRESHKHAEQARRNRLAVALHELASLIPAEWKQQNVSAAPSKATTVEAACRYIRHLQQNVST

| Sequence | relative binding free energy |
| --- | --- |
| AATGTCACGTGGCCGG | -0.06 kcal/mol |
| TCAGTCACGTGCTGGG | 0.08 kcal/mol |
| TTCTCCACGTGTGGGT | 0.09 kcal/mol |
| AGCGGCACGTGAGGGT | 0.17 kcal/mol |
| GTGTGCACGTGCCGTT | 0.01 kcal/mol |
| TTTTGCACGTGATTAC | 0.15 kcal/mol |
| GGGTGCACGTGTTGAT | 0.04 kcal/mol |
| TTAATCACGTGTGTAG | 0.17 kcal/mol |
| ATTGGCACGTGGGAAG | -0.11 kcal/mol |
| AGAAACACGTGGAGGG | -0.15 kcal/mol |
| TCAGGCACGTGAGATG | 0.13 kcal/mol |
| GGGCACACGTGGGCAT | 0.1 kcal/mol |
| TAGAACACGTGTGCGG | 0.2 kcal/mol |
| CTAGTCACGTGTGGTC | 0.22 kcal/mol |
| AGTTGCACGTGCTAAG | 0.07 kcal/mol |
| TAGCACACGTGTGGTG | -0.07 kcal/mol |
| AGAGTCACGTGATCGG | 0.24 kcal/mol |
| AAGGTCACGTGTGCTT | 0.09 kcal/mol |
| GGTAACACGTGGGAGT | 0 kcal/mol |
| GATGGCACGTGGGCGC | -0.14 kcal/mol |
| AATAACACGTGGGTTG | -0.2 kcal/mol |
| GCTGGCACGTGATGTT | -0.02 kcal/mol |
| GTTTGCACGTGAGTAA | 0.21 kcal/mol |

| Sequence | relative binding free energy |
| --- | --- |
| TAAGCCACGTGAGGTG | 0.16 kcal/mol |
| CGTAGCACGTGGTAAT | -0.12 kcal/mol |
| TATGCCACGTGTCGGG | -0.09 kcal/mol |
| TGTTTCACGTGTCTGT | 0.34 kcal/mol |
| GGTCTCACGTGTTTTA | 0.21 kcal/mol |
| GTAGGCACGTGAGTTC | 0.32 kcal/mol |
| CTCGGCACGTGGTGTA | -0.15 kcal/mol |
| TGTATCACGTGAGTAT | 0.25 kcal/mol |
| CGTCACACGTGTGGTT | 0.16 kcal/mol |
| CGGTTCACGTGGGGGT | 0.28 kcal/mol |
| TGGTTCACGTGAGGGC | 0.42 kcal/mol |
| GTGAACACGTGAGGCG | 0.32 kcal/mol |
| TTGTTCACGTGTCGAT | 0.29 kcal/mol |
| TGTGACACGTGGATTG | -0.09 kcal/mol |
| TTTATCACGTGAGTAA | 0.38 kcal/mol |
| ACGTTCACGTGAAGAG | 0.67 kcal/mol |
| CGGTTCACGTGCAGGT | 0.1 kcal/mol |
| ATGTGCACGTGGAAGG | 0.05 kcal/mol |
| TGTGGCACGTGGGTGC | -0.21 kcal/mol |
| AGAAGCACGTGGTAAT | -0.06 kcal/mol |
| TATTTCACGTGACGGT | 0.35 kcal/mol |
| GGGGACACGTGTACTG | 0 kcal/mol |
| AGGTGCACGTGTGTCG | -0.03 kcal/mol |

| Sequence | relative binding free energy |
| --- | --- |
| TTCGACACGTGGAGGT | 0.01 kcal/mol |
| CGGAGCACGTGGTAAG | -0.03 kcal/mol |
| GGATGCACGTGCGCGG | -0.25 kcal/mol |
| CGGGACACGTGTGTGT | -0.02 kcal/mol |
| TGACTCACGTGTGGCG | 0.19 kcal/mol |
| ATATTCACGTGCGGGG | 0.12 kcal/mol |
| TAACTCACGTGATGTG | 0.33 kcal/mol |
| AGTGGCACGTGCGCGT | -0.3 kcal/mol |
| GGGTCCACGTGGGTTA | 0.01 kcal/mol |
| AGTTACACGTGGTAGA | 0.06 kcal/mol |
| TTTTGCACGTGATTGA | 0.03 kcal/mol |
| TTGTCCACGTGTGATT | 0.05 kcal/mol |
| ATCGGCACGTGAAGTG | 0.13 kcal/mol |
| CGGGCCACGTGTGTTT | 0.03 kcal/mol |
| GTAAGCACGTGTATAT | 0.01 kcal/mol |
| TTTGGCACGTGTTCGT | -0.12 kcal/mol |
| ACGGTCACGTGGGGGC | -0.11 kcal/mol |
| GTTATCACGTGTATTG | 0.04 kcal/mol |
| GGGAGCACGTGCGTGT | -0.16 kcal/mol |
| GTAGTCACGTGGTTGA | 0.13 kcal/mol |
| ATTTGCACGTGCGTTG | -0.12 kcal/mol |
| ATTATCACGTGTGGAA | 0.2 kcal/mol |
| ATTTCCACGTGAAGTT | 0.45 kcal/mol |

| Sequence | relative binding free energy |
| --- | --- |
| GTGGTCACGTGACGTG | 0.23 kcal/mol |
| AGAGGCACGTGTTACT | 0 kcal/mol |
| AGAGGCACGTGGTGCT | -0.23 kcal/mol |
| AGATGCACGTGTACGT | -0.03 kcal/mol |
| GGTCTCACGTGAGTGG | 0.41 kcal/mol |
| GTTTTCACGTGATAGT | 0.4 kcal/mol |
| TGGTGCACGTGCGTTT | 0 kcal/mol |
| CGTTGCACGTGTGTCT | 0.01 kcal/mol |
| GTATTCACGTGTGCAA | 0.24 kcal/mol |
| TGGGACACGTGATTTT | 0.12 kcal/mol |
| GCAGTCACGTGGAGGA | 0.14 kcal/mol |
| TTTATCACGTGACGGG | 0.17 kcal/mol |
| TCTGACACGTGGTATT | 0 kcal/mol |
| AAAGGCACGTGTGATG | 0.02 kcal/mol |
| AATTTCACGTGTGTTA | 0.21 kcal/mol |
| AGTCGCACGTGGTAGA | -0.05 kcal/mol |
| CAGTCCACGTGGGGGT | -0.17 kcal/mol |
| GGTAGCACGTGCGGTT | 0.04 kcal/mol |
| AGTGCCACGTGATTGG | 0.05 kcal/mol |
| TGGAGCACGTGAGTGT | 0.12 kcal/mol |
| CTGTGCACGTGAGGGT | 0.14 kcal/mol |
| TTGTGCACGTGGAATA | -0.05 kcal/mol |
| TGCGGCACGTGATAGG | 0.07 kcal/mol |

| Sequence | relative binding free energy |
| --- | --- |
| CCTTTCACGTGTTAGG | 0.34 kcal/mol |
| GGTATCACGTGGTTAT | 0.13 kcal/mol |
| TTGTGCACGTGAATTG | 0.39 kcal/mol |
| TCTTGCACGTGACGGT | 0.15 kcal/mol |
| GTATTCACGTGGAATT | 0.33 kcal/mol |
| TGACTCACGTGATGTT | 0.24 kcal/mol |
| CGTGGCACGTGGATCT | 0 kcal/mol |
| TTGCGCACGTGTATGG | -0.1 kcal/mol |
| CTGTACACGTGGGGTT | -0.15 kcal/mol |
| TAGGCCACGTGGTTTA | -0.13 kcal/mol |
| TGTGTCACGTGTTGTT | 0.22 kcal/mol |
| AAGGTCACGTGTTCTT | 0.01 kcal/mol |
| TAATTCACGTGAAATT | 0.28 kcal/mol |
| TTAGTCACGTGTATAC | 0.07 kcal/mol |
| TTATTCACGTGAGGGC | 0.3 kcal/mol |
| TTTGGCACGTGGCTGG | -0.08 kcal/mol |
| TTGTGCACGTGTGACT | 0.05 kcal/mol |
| CTTTTCACGTGGGGTA | 0.1 kcal/mol |
| TGAATCACGTGAGTGC | 0.31 kcal/mol |
| ACAAGCACGTGTAGGT | 0.02 kcal/mol |
| TTTGACACGTGCAGGT | -0.1 kcal/mol |
| TGTTTCACGTGGAGGA | 0.31 kcal/mol |
| TGTGTCACGTGTTGTG | 0.16 kcal/mol |
